US20230113563A1 (SYSTIMMUNE, published 2023)
Values belong to the binder of their own block, whether it stands above or below them.

Key:
Experiment in all cases: cell-based or functional assay
[1] = target: T1, EGFR on tumor cells (MDA-MB-231, HeLa) (UniProt P00533)
[2] = target: T1, EGFR on tumor cells (MDA-MB-231, HeLa); remark: listed apart in the source
[3] = target: MICA on MDA-MB-231 cells (UniProt Q29983 24-383, limits assumed)
[4] = target: mesothelin on MDA-MB-231 cells (UniProt Q13421 37-598, limits assumed)

UniProt Q29983, sequence (Q29983 24-383 limits assumed): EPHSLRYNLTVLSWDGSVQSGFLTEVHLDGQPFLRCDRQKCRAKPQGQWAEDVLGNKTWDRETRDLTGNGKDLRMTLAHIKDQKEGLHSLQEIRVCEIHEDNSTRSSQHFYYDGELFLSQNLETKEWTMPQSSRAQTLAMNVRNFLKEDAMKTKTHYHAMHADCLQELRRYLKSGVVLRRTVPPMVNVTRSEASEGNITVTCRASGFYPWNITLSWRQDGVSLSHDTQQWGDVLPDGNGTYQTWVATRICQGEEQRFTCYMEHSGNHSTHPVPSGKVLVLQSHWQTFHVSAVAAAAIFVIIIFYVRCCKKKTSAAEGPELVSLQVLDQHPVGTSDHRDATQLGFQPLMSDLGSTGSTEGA

B1: SI-55E1 (other)
heavy: DVVMTQSPSTLSASVGDRVTINCQASESISSWLAWYQQKPGKAPKLLIYEASKLASGVPSRFSGSGSGTEFTLTISSLQPDDFATYYCQGYFYFISRTYVNSFGGGTKVEIKGGGGSGGGGSGGGGSGGGGSEVQLVESGGGLVQPGGSLRLSCAASGFTISTNAMSWVRQAPGKGLEWIGVITGRDITYYASWAKGRFTISRDNSKNTLYLQMNSLRAEDTAVYYCARDGGSSAITSNNIWGQGTLVTVSTGGGGSGGGGSQVQLQQSGAEVKKPGSSVKVSCKASGYTFTNYYIYWVRQAPGQGLEWIGGINPTSGGSNFNEKFKTRVTITADESSTTAYMELSSLRSEDTAFYFCTRQGLWFDSDGRGFDFWGQGTTVTVSSASTKGPSVFPLAPSSKSTSGGTAALGCLVKDYFPEPVTVSWNSGALTSGVHTFPAVLQSSGLYSLSSVVTVPSSSLGTQTYICNVNHKPSNTKVDKRV[human IgG1 Fc with changes cut from this listing]GGGGSGGGGSEVQLLESGGGLVQPGGSLRLSCAASGFSFSSGYDMCWVRQAPGKGLEWIACIAAGSAGITYDANWAKGRFTISRDNSKNTLYLQMNSLRAEDTAVYYCARSAFSFDYAMDLWGQGTLVTVSSGGGGSGGGGSGGGGSGGGGSDIQMTQSPSTLSASVGDRVTITCQASQSISSHLNWYQQKPGKAPKLLIYKASTLASGVPSRFSGSGSGTEFTLTISSLQPDDFATYYCQQGYSWGNVDNVFGGGTKVEIKGGGGSGGGGSGRSLVESGGGLVQPGGSLRLSCTASGFTISSYHMQWVRQAPGKGLEYIGTISSGGNVYYASSARGRFTISRPSSKNTVDLQMNSLRAEDTAVYYCARDSGYSDPMWGQGTLVTVSSGGGGSGGGGSGGGGSGGGGSDVVMTQSPSSVSASVGDRVTITCQASQNIRTYLSWYQQKPGKAPKLLIYAAANLASGVPSRFSGSGSGTDFTLTISDLEPGDAATYYCQSTYLGTDYVGGAFGGGTKVEIK
light: DIQMTQSPSSLSASVGDRVTITCRSSQNIVHSNGNTYLDWYQQTPGKAPKLLIYKVSNRFSGVPSRFSGSGSGTDFTFTISSLQPEDIATYYCFQYSHVPWTFGQGTKLQITRTVAAPSVFIFPPSDEQLKSGTASVVCLLNNFYPREAKVQWKVDNALQSGNSQESVTEQDSKDSTYSLSSTLTLSKADYEKHKVYACEVTHQGLSSPVTKSFNRGEC
TDCC EC50 (pM), HeLa target cells, E:T 10 [1]: 13 pM | TDCC EC50 (pM), MDA-MB-231 target cells, E:T 5 [2]: 0.017 pM

B2: SI-49E4 (other)
heavy: DIQMTQSPSTLSASVGDRVTITCQASQSISSHLNWYQQKPGKAPKLLIYKASTLASGVPSRFSGSGSGTEFTLTISSLQPDDFATYYCQQGYSWGNVDNVFGGGTKVEIKGGGGSGGGGSGGGGSGGGGSEVQLLESGGGLVQPGGSLRLSCAASGFSFSSGYDMCWVRQAPGKGLEWIACIAAGSAGITYDANWAKGRFTISRDNSKNTLYLQMNSLRAEDTAVYYCARSAFSFDYAMDLWGQGTLVTVSTGGGGSGGGGSRSLVESGGGLVQPGGSLRLSCTASGFTISSYHMQWVRQAPGKGLEYIGTISSGGNVYYASSARGRFTISRPSSKNTVDLQMNSLRAEDTAVYYCARDSGYSDPMWGQGTLVTVSSASTKGPSVFPLAPSSKSTSGGTAALGCLVKDYFPEPVTVSWNSGALTSGVHTFPAVLQSSGLYSLSSVVTVPSSSLGTQTYICNVNHKPSNTKVDKRV[human IgG1 Fc with changes cut from this listing]GGGGSGGGGSEVQLVESGGGLVQPGGSLRLSCAASGFTISTNAMSWVRQAPGKGLEWIGVITGRDITYYASWAKGRFTISRDNSKNTLYLQMNSLRAEDTAVYYCARDGGSSAITSNNIWGQGTLVTVSSGGGGSGGGGSGGGGSGGGGSDVVMTQSPSTLSASVGDRVTINCQASESISSWLAWYQQKPGKAPKLLIYEASKLASGVPSRFSGSGSGTEFTLTISSLQPDDFATYYCQGYFYFISRTYVNSFGGGTKVEIKGGGGSGGGGSGFLNSLFNQEVQIPLTESYCGPCPKNWICYKNNCYQFFDESKNWYESQASCMSQNASLLKVYSKEDQDLLKLVKSYHWMGLVHIPTNGSWQWEDGSILSPNLLTIIEMQKGDCALYASSFKGYIENCSTPNTYICMQRTVGGGGSGGGGSGGGGSGGGGSFLNSLFNQEVQIPLTESYCGPCPKNWICYKNNCYQFFDESKNWYESQASCMSQNASLLKVYSKEDQDLLKLVKSYHWMGLVHIPTNGSWQWEDGSILSPNLLTIIEMQKGDCALYASSFKGYIENCSTPNTYICMQRTV
light: DVVMTQSPSSVSASVGDRVTITCQASQNIRTYLSWYQQKPGKAPKLLIYAAANLASGVPSRFSGSGSGTDFTLTISDLEPGDAATYYCQSTYLGTDYVGGAFGGGTKVEIKRTVAAPSVFIFPPSDEQLKSGTASVVCLLNNFYPREAKVQWKVDNALQSGNSQESVTEQDSKDSTYSLSSTLTLSKADYEKHKVYACEVTHQGLSSPVTKSFNRGEC
TDCC EC50 (pM), MDA-MB-231 target cells, E:T 5 [3]: 0.009 pM

Continued, values first:

TDCC EC50 (pM), MDA-MB-231 target cells, E:T 5 [4]: 0.009 pM
B3: SI-51E1 (other)
heavy: DVVMTQSPSTLSASVGDRVTINCQASESISSWLAWYQQKPGKAPKLLIYEASKLASGVPSRFSGSGSGTEFTLTISSLQPDDFATYYCQGYFYFISRTYVNSFGGGTKVEIKGGGGSGGGGSGGGGSGGGGSEVQLVESGGGLVQPGGSLRLSCAASGFTISTNAMSWVRQAPGKGLEWIGVITGRDITYYASWAKGRFTISRDNSKNTLYLQMNSLRAEDTAVYYCARDGGSSAITSNNIWGQGTLVTVSTGGGGSGGGGSQVQLQQPGAELVRPGASVKLSCKASGYTFTSYWINWVKQRPGQGLEWIGNIYPSDSYTNYNQKFKDKATLTVDKSSSTAYMQLSSPTSEDSAVYYCTRSWRGNSFDYWGQGTTLTVSSASTKGPSVFPLAPSSKSTSGGTAALGCLVKDYFPEPVTVSWNSGALTSGVHTFPAVLQSSGLYSLSSVVTVPSSSLGTQTYICNVNHKPSNTKVDKRV[human IgG1 Fc with changes cut from this listing]GGGGSGGGGSEVQLLESGGGLVQPGGSLRLSCAASGFSFSSGYDMCWVRQAPGKGLEWIACIAAGSAGITYDANWAKGRFTISRDNSKNTLYLQMNSLRAEDTAVYYCARSAFSFDYAMDLWGQGTLVTVSSGGGGSGGGGSGGGGSGGGGSDIQMTQSPSTLSASVGDRVTITCQASQSISSHLNWYQQKPGKAPKLLIYKASTLASGVPSRFSGSGSGTEFTLTISSLQPDDFATYYCQQGYSWGNVDNVFGGGTKVEIKGGGGSGGGGSGRSLVESGGGLVQPGGSLRLSCTASGFTISSYHMQWVRQAPGKGLEYIGTISSGGNVYYASSARGRFTISRPSSKNTVDLQMNSLRAEDTAVYYCARDSGYSDPMWGQGTLVTVSSGGGGSGGGGSGGGGSGGGGSDVVMTQSPSSVSASVGDRVTITCQASQNIRTYLSWYQQKPGKAPKLLIYAAANLASGVPSRFSGSGSGTDFTLTISDLEPGDAATYYCQSTYLGTDYVGGAFGGGTKVEIK
light: DIVMTQSPSSLTVTAGEKVTMSCKSSQSLLNSGNQKNYLTWYQQKPGQPPKLLIYWASTRESGVPDRFTGSGSGTDFTLTISSVQAEDLAVYYCQNDYSYPFTFGSGTKLEIKRTVAAPSVFIFPPSDEQLKSGTASVVCLLNNFYPREAKVQWKVDNALQSGNSQESVTEQDSKDSTYSLSSTLTLSKADYEKHKVYACEVTHQGLSSPVTKSFNRGEC

TDCC EC50 (pM), MDA-MB-231 target cells, E:T 5 [4]: 0.009 pM
B4: SI-51E4 (other)
heavy: DVVMTQSPSTLSASVGDRVTINCQASESISSWLAWYQQKPGKAPKLLIYEASKLASGVPSRFSGSGSGTEFTLTISSLQPDDFATYYCQGYFYFISRTYVNSFGCGTKVEIKGGGGSGGGGSGGGGSGGGGSEVQLVESGGGLVQPGGSLRLSCAASGFTISTNAMSWVRQAPGKCLEWIGVITGRDITYYASWAKGRFTISRDNSKNTLYLQMNSLRAEDTAVYYCARDGGSSAITSNNIWGQGTLVTVSTGGGGSGGGGSQVQLQQPGAELVRPGASVKLSCKASGYTFTSYWINWVKQRPGQGLEWIGNIYPSDSYTNYNQKFKDKATLTVDKSSSTAYMQLSSPTSEDSAVYYCTRSWRGNSFDYWGQGTTLTVSSASTKGPSVFPLAPSSKSTSGGTAALGCLVKDYFPEPVTVSWNSGALTSGVHTFPAVLQSSGLYSLSSVVTVPSSSLGTQTYICNVNHKPSNTKVDKRV[human IgG1 Fc with L234A L235A N297A K322A (EU numbers) cut from this listing]GGGGSGGGGSEVQLLESGGGLVQPGGSLRLSCAASGFSFSSGYDMCWVRQAPGKCLEWIACIAAGSAGITYDANWAKGRFTISRDNSKNTLYLQMNSLRAEDTAVYYCARSAFSFDYAMDLWGQGTLVTVSSGGGGSGGGGSGGGGSGGGGSDIQMTQSPSTLSASVGDRVTITCQASQSISSHLNWYQQKPGKAPKLLIYKASTLASGVPSRFSGSGSGTEFTLTISSLQPDDFATYYCQQGYSWGNVDNVFGCGTKVEIKGGGGSGGGGSGRSLVESGGGLVQPGGSLRLSCTASGFTISSYHMQWVRQAPGKCLEYIGTISSGGNVYYASSARGRFTISRPSSKNTVDLQMNSLRAEDTAVYYCARDSGYSDPMWGQGTLVTVSSGGGGSGGGGSGGGGSGGGGSDVVMTQSPSSVSASVGDRVTITCQASQNIRTYLSWYQQKPGKAPKLLIYAAANLASGVPSRFSGSGSGTDFTLTISDLEPGDAATYYCQSTYLGTDYVGGAFGCGTKVEIK
light: B3 light
